# Source: US7425576B2, “Compounds as inhibitors of hepatitis C virus NS3 serine protease” (Schering Corporation, priority 2004, dated 2008)
# Biological target: Recombinant heterodimeric HCV NS3/NS4A protease (strain 1a) (Hepatitis C virus genotype 1a, UniProt P27958)
# Assay: Spectrophotometric assay for HCV protease inhibitory activity (chromogenic ester substrates)
# Format: biochemical
# From the text: The present invention relates to novel HCV protease inhibitors. This utility can be manifested in their ability to inhibit the HCV NS2/NS4a serine protease.
# Assay for HCV Protease Inhibitory Activity:
# Spectrophotometric Assay: Spectrophotometric assay for the HCV serine protease can be performed on the inventive compounds by following the procedure described by R. Zhang et al, Analytical Biochemistry, 270 (1999) 268-275, the disclosure of which is incorporated herein by reference. The assay based on the proteolysis of chromogenic ester substrates is suitable for the continuous monitoring of HCV NS3 protease activity. The substrates are derived from the P side of the NS5A-NS5B junction sequence (Ac-DTEDVVX(Nva), where X=A or P) whose C-terminal carboxyl groups are esterified with one of four different chromophoric alcohols (3- or 4-nitrophenol, 7-hydroxy-4-methyl-coumarin, or 4-phenylazophenol). Illustrated below are the synthesis, characterization and application of these novel spectrophotometric ester substrates to high throughput screening and detailed kinetic evaluation of HCV NS3 protease inhibitors.
# Protein concentrations are determined by the Biorad dye method using recombinant HCV protease standards previously quantified by amino acid analysis. Prior to assay initiation, the enzyme storage buffer (50 mM sodium phosphate pH 8.0, 300 mM NaCl, 10% glycerol, 0.05% lauryl maltoside and 10 mM DTT) is exchanged for the assay buffer (25 mM MOPS pH 6.5, 300 mM NaCl, 10% glycerol, 0.05% lauryl maltoside, 5 μM EDTA and 5 μM DTT) utilizing a Biorad Bio-Spin P-6 prepacked column.
# Protease Assay: HCV protease assays are performed at 30° C. using a 200 μl reaction mix in a 96-well microtiter plate. Assay buffer conditions (25 mM MOPS pH 6.5, 300 mM NaCl, 10% glycerol, 0.05% lauryl maltoside, 5 μM EDTA and 5 μM DTT) are optimized for the NS3/NS4A heterodimer (D. L. Sali et al, ibid.)). Typically, 150 μl mixtures of buffer, substrate and inhibitor are placed in wells (final concentration of DMSO≦4% v/v) and allowed to preincubate at 30° C. for approximately 3 minutes. Fifty μls of prewarmed protease (12 nM, 30° C.) in assay buffer, is then used to initiate the reaction (final volume 200 μl).The plates are monitored over the length of the assay (60 minutes) for change in absorbance at the appropriate wavelength (340 nm for 3-Np and HMC, 370 nm for PAP, and 400 nm for 4-Np) using a Spectromax Plus microtiter plate reader equipped with a monochrometer (acceptable results can be obtained with plate readers that utilize cutoff filters). Proteolytic cleavage of the ester linkage between the Nva and the chromophore is monitored at the appropriate wavelength against a no enzyme blank as a control for non-enzymatic hydrolysis. The evaluation of substrate kinetic parameters is performed over a 30-fold substrate concentration range (˜6-200 μM). Initial velocities are determined using linear regression and kinetic constants are obtained by fitting the data to the Michaelis-Menten equation using non-linear regression analysis (Mac Curve Fit 1.1, K. Raner). Turnover numbers (kcat) are calculated assuming the enzyme is fully active.
# Evaluation of Inhibitors and Inactivators: The inhibition constants (Ki) for the competitive inhibitors Ac-D-(D-Gla)-L-I-(Cha)-C—OH (27), Ac-DTEDVVA(Nva)-OH and Ac-DTEDVVP(Nva)-OH are determined experimentally at fixed concentrations of enzyme and substrate by plotting vo/vi vs. inhibitor concentration ([I]o) according to the rearranged Michaelis-Menten equation for competitive inhibition kinetics: vo/vi=1+[I]o/(Ki(1+[S]o/Km)), where vo is the uninhibited initial velocity, vi is the initial velocity in the presence of inhibitor at any given inhibitor concentration ([I]o) and [S]o is the substrate concentration used.
smiles,measurement,setting,value
COC[C@@](C)(CC(C)C)NC(=O)N[C@H](C(=O)N1C[C@H]2[C@@H]([C@H]1C(=O)NC(CC1CCC1)C(=O)C(N)=O)C2(C)C)C1(C)CCCCC1 (stereo partly shown) [Example 1688],Ki,"Table 3, Ki* range class",< 75 nM
CC(C)COC(=O)OC[C@@H](NC(=O)N[C@H](C(=O)N1C[C@H]2[C@@H]([C@H]1C(=O)NC(CC1CCC1)C(=O)C(N)=O)C2(C)C)C(C)(C)C)C(C)C (stereo partly shown) [Example 1417],Ki,"Table 2, Ki* range class",< 75 nM
CCNC(=O)OC[C@@H](NC(=O)N[C@H](C(=O)N1C[C@H]2[C@@H]([C@H]1C(=O)NC(CC1CCC1)C(=O)C(N)=O)C2(C)C)C1CCCCC1)C(C)(C)C (stereo partly shown) [Example 1443],Ki,"Table 2, Ki* range class",75 to 250 nM
CC(C)[C@@H](COC(=O)OCC1CC1)NC(=O)N[C@H](C(=O)N1C[C@H]2[C@@H]([C@H]1C(=O)NC(CC1CCC1)C(=O)C(N)=O)C2(C)C)C(C)(C)C (stereo partly shown) [Example 1414],Ki,"Table 2, Ki* range class",< 75 nM
CC(C)(C)[C@H](NC(=O)CC1(COCc2ccccc2)CCCCCC1)C(=O)N1C[C@H]2[C@@H]([C@H]1C(=O)NC(CC1CC1)C(=O)C(N)=O)C2(C)C (stereo partly shown) [Example 1621],Ki,"Table 3, Ki* range class",< 75 nM
CN(C)C(=O)OC[C@@H](NC(=O)N[C@H](C(=O)N1C[C@H]2[C@@H]([C@H]1C(=O)NC(CC1CC1)C(=O)C(N)=O)C2(C)C)C1Cc2ccccc2C1)C(C)(C)C (stereo partly shown) [Example 1035],Ki,"Table 1, Ki* range class",< 75 nM
C=CCNC(=O)C(=O)C(CCCC)NC(=O)[C@@H]1[C@@H]2[C@H](CN1C(=O)[C@@H](NC(=O)N[C@H](COC(=O)NCC)C(C)(C)C)C1(C)CCCCC1)C2(C)C (stereo partly shown) [Example 1089],Ki,"Table 1, Ki* range class",< 75 nM
CN(C)C(=O)OC[C@@H](NC(=O)N[C@H](C(=O)N1C[C@H]2[C@@H]([C@H]1C(=O)NC(CC1CCC1)C(=O)C(N)=O)C2(C)C)C(C)(C)C)C(C)(C)C (stereo partly shown) [Example 1053],Ki,"Table 1, Ki* range class",< 75 nM
CCCCC(NC(=O)[C@@H]1[C@@H]2[C@H](CN1C(=O)[C@@H](NC(=O)N[C@H](COC(=O)NC(C)C)C(C)(C)C)C1Cc3ccccc3C1)C2(C)C)C(=O)C(=O)NCC (stereo partly shown) [Example 1074],Ki,"Table 1, Ki* range class",75 to 250 nM
CC(C)[C@H](NC(=O)N[C@H](C(=O)N1C[C@H]2[C@@H]([C@H]1C(=O)NC(CC1CC1)C(=O)C(N)=O)C2(C)C)C(C)(C)C)C(O)c1ccccc1 (stereo partly shown) [Example 1658],Ki,"Table 3, Ki* range class",75 to 250 nM
COC(=O)OC[C@@H](NC(=O)N[C@H](C(=O)N1CC2[C@@H](C1C(=O)NC(CC1CC1)C(=O)C(N)=O)C2(C)C)C(C)(C)C)C1CCCC1 (stereo partly shown) [Example 1441],Ki,"Table 2, Ki* range class",< 75 nM
C=CCNC(=O)C(=O)C(CCC)NC(=O)[C@@H]1[C@@H]2[C@H](CN1C(=O)[C@@H](NC(=O)N[C@H](COC(=O)N(C)C)C(C)(C)C)C1Cc3ccccc3C1)C2(C)C (stereo partly shown) [Example 1037],Ki,"Table 1, Ki* range class",75 to 250 nM
C=CCNC(=O)C(=O)C(CCCC)NC(=O)[C@@H]1[C@@H]2[C@H](CN1C(=O)[C@@H](NC(=O)N[C@H](COC(=O)NC(C)C)C(C)(C)C)C1(C)CCCCC1)C2(C)C (stereo partly shown) [Example 1096],Ki,"Table 1, Ki* range class",< 75 nM
C#CCCC(NC(=O)[C@@H]1[C@@H]2[C@H](CN1C(=O)[C@@H](NC(=O)N[C@H](COC(=O)NC(C)C)C(C)(C)C)C1(C)CCCCC1)C2(C)C)C(=O)C(=O)NCC=C (stereo partly shown) [Example 1095],Ki,"Table 1, Ki* range class",< 75 nM
same,Ki,"Table 6, numeric Ki*",8 nM
CC(C)(CO)NC(=O)N[C@H](C(=O)N1C[C@H]2[C@@H]([C@H]1C(=O)NC(CC1CCC1)C(=O)C(N)=O)C2(C)C)C(C)(C)C (stereo partly shown) [Example 1632],Ki,"Table 3, Ki* range class",< 75 nM
C=CCNC(=O)C(=O)C(CC1CC1)NC(=O)[C@@H]1[C@@H]2[C@H](CN1C(=O)[C@@H](NC(=O)N[C@H](COC(=O)NC(C)(C)C)C(C)(C)C)C1Cc3ccccc3C1)C2(C)C (stereo partly shown) [Example 1030],Ki,"Table 1, Ki* range class",< 75 nM
C=CCNC(=O)C(=O)C(CCC1CC1)NC(=O)[C@@H]1[C@@H]2[C@H](CN1C(=O)[C@@H](NC(=O)N[C@H](COC(=O)NCC1CC1)C(C)(C)C)C1(C)CCCCC1)C2(C)C (stereo partly shown) [Example 1120],Ki,"Table 1A, Ki* range class",< 75 nM
same,Ki,"Table 6A, numeric Ki*",30 nM
CCCCC(NC(=O)[C@@H]1[C@@H]2[C@H](CN1C(=O)[C@@H](NC(=O)N[C@H](COC(=O)NCC)C(C)(C)C)C1Cc3ccccc3C1)C2(C)C)C(=O)C(=O)NCC (stereo partly shown) [Example 1071],Ki,"Table 1, Ki* range class",< 75 nM
C=CCNC(=O)C(=O)C(CCCC)NC(=O)[C@@H]1[C@@H]2[C@H](CN1C(=O)[C@@H](NC(=O)NC1(COC(C)(C)C)CCCCC1)C1(C)CCCCC1)C2(C)C (stereo partly shown) [Example 1681],Ki,"Table 3, Ki* range class",> 250 nM
COC(=O)OC[C@@H](NC(=O)N[C@H](C(=O)N1C[C@H]2[C@@H]([C@H]1C(=O)NC(CC1CC1)C(=O)C(N)=O)C2(C)C)C(C)(C)C)C1CCC1 (stereo partly shown) [Example 1415],Ki,"Table 2, Ki* range class",< 75 nM
CC(C)(C)[C@H](NC(=O)N[C@H](COC(=O)NCC1CC1)C(C)(C)C)C(=O)N1C[C@H]2[C@@H]([C@H]1C(=O)NC(CC1CC1)C(=O)C(N)=O)C2(C)C (stereo partly shown) [Example 1027],Ki,"Table 1, Ki* range class",< 75 nM
C=CCNC(=O)C(=O)C(CCCC)NC(=O)[C@@H]1[C@@H]2[C@H](CN1C(=O)[C@@H](NC(=O)N[C@H](COC(=O)NC(C)C)C(C)(C)C)C1CCCC1)C2(C)C (stereo partly shown) [Example 1049],Ki,"Table 1, Ki* range class",< 75 nM
CCCC(NC(=O)[C@@H]1[C@@H]2[C@H](CN1C(=O)[C@@H](NC(=O)N[C@H](COC(=O)NCC)C(C)(C)C)C1Cc3ccccc3C1)C2(C)C)C(=O)C(=O)NCC (stereo partly shown) [Example 1064],Ki,"Table 1, Ki* range class",75 to 250 nM
C=CCNC(=O)C(=O)C(CCCC)NC(=O)[C@@H]1[C@@H]2[C@H](CN1C(=O)[C@@H](NC(=O)N[C@H](COC(=O)NC(C)(C)C)C(C)(C)C)C1Cc3ccccc3C1)C2(C)C (stereo partly shown) [Example 1046],Ki,"Table 1, Ki* range class",< 75 nM
C=CCNC(=O)C(=O)C(CCC)NC(=O)[C@@H]1[C@@H]2[C@H](CN1C(=O)[C@@H](NC(=O)N[C@H](COC(=O)NCC1CC1)C(C)C)C(C)(C)C)C2(C)C (stereo partly shown) [Example 1021],Ki,"Table 1, Ki* range class",< 75 nM
C#CCCC(NC(=O)[C@@H]1[C@@H]2[C@H](CN1C(=O)[C@@H](NC(=O)N[C@H](COC(=O)NCC1CC1)C(C)(C)C)C1(C)CCCCC1)C2(C)C)C(=O)C(=O)NCC=C (stereo partly shown) [Example 1115],Ki,"Table 1A, Ki* range class",< 75 nM
same,Ki,"Table 6A, numeric Ki*",7.4 nM
COC[C@@H](NC(=O)N[C@H](C(=O)N1C[C@H]2[C@@H]([C@H]1C(=O)NC(CC1CCC1)C(=O)C(N)=O)C2(C)C)C1Cc2ccccc2C1)C(C)C (stereo partly shown) [Example 1652],Ki,"Table 3, Ki* range class",< 75 nM
CC(C)(NC(=O)N[C@H](C(=O)N1C[C@H]2[C@@H]([C@H]1C(=O)NC(CC1CC1)C(=O)C(N)=O)C2(C)C)C(C)(C)C)C(O)c1ccccc1 (stereo partly shown) [Example 1648],Ki,"Table 3, Ki* range class",75 to 250 nM
CC(C)(COCc1ccccc1)NC(=O)N[C@H](C(=O)N1C[C@H]2[C@@H]([C@H]1C(=O)NC(CC1CCC1)C(=O)C(N)=O)C2(C)C)C(C)(C)C (stereo partly shown) [Example 1633],Ki,"Table 3, Ki* range class",75 to 250 nM
CC(C)(NC(=O)N[C@H](C(=O)N1C[C@H]2[C@@H]([C@H]1C(=O)NC(CC1CC1)C(=O)C(N)=O)C2(C)C)C(C)(C)C)C(OCOCc1ccccc1)c1ccccc1 (stereo partly shown) [Example 1647],Ki,"Table 3, Ki* range class",75 to 250 nM
C#CCNC(=O)C(=O)C(CCC)NC(=O)[C@@H]1[C@@H]2[C@H](CN1C(=O)[C@@H](NC(=O)N[C@H](COC(=O)NCC)C(C)(C)C)C1Cc3ccccc3C1)C2(C)C (stereo partly shown) [Example 1066],Ki,"Table 1, Ki* range class",< 75 nM
CCCCC(NC(=O)[C@@H]1[C@@H]2[C@H](CN1C(=O)[C@@H](NC(=O)N[C@H](COC(=O)NCC)C(C)(C)C)C1Cc3ccccc3C1)C2(C)C)C(=O)C(=O)NC (stereo partly shown) [Example 1067],Ki,"Table 1, Ki* range class",< 75 nM
CC(C)[C@@H](COC(=O)NC(C)(C)C)NC(=O)N[C@H](C(=O)N1C[C@H]2[C@@H]([C@H]1C(=O)NC(CC1CC1)C(=O)C(N)=O)C2(C)C)C1Cc2ccccc2C1 (stereo partly shown) [Example 1609],Ki,"Table 3, Ki* range class",75 to 250 nM
C=CCNC(=O)C(=O)C(CCCC)NC(=O)[C@@H]1[C@@H]2[C@H](CN1C(=O)[C@@H](NC(=O)N[C@H](COC(=O)NCC)C(C)(C)C)C1Cc3ccccc3C1)C2(C)C (stereo partly shown) [Example 1044],Ki,"Table 1, Ki* range class",< 75 nM
